Source: PubChem BioAssay AID686978 (National Center for Advancing Translational Sciences (NCATS), 2013)
Out of some 420,000 compounds screened, about 64,000 (15%) were called active. This list was built around the results that the source calls inconclusive (neither active nor inactive); the mix of calls is not that of the screen. Calls follow the shape of the dose curve; as a rule, active = well fitted inhibition curve with a large enough effect; inconclusive = small, poorly fitted or top-dose-only effect; inactive = flat fitted curve, though single readings scatter. Potencies of inconclusive entries are left out as doubtful fits.

Test: qHTS for Inhibitors of human tyrosyl-DNA phosphodiesterase 1 (TDP1): qHTS in cells in absence of CPT; also: nearly all actives have a fitted effect of over 55% in size
Conditions: DT40 Tdp1-/- hTDP1 cells, no CPT, ATP luminescence, 48 h; activity change, negative = growth inhibition: at 46.2 µM (top of the series) unless noted
Summary of the method: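 Chicken DT40 Tdp1-/- cells complemented with human TDP1, screened without camptothecin (DMSO vehicle only), 400 cells/well. Compounds pin-transferred, cells incubated at 37 °C for at least 48 hr. Growth read as ATP-dependent luminescence (CellTiter-Glo, 30 min at RT).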
% is scaled to controls: 0 for no effect and ±100 for the full control effect; potency is read from the fitted curve at half-maximal effect; tags tell the direction and shape of the fitted curve.

| SMILES | Potency | activity change, negative = growth inhibition |
| --- | --- | --- |
| CCOC(=O)C1=C(COC(=O)CNS(=O)(=O)c2ccc(C)cc2)NC(=O)NC1C (stereo not given) | inactive |  |
| CCS(=O)(=O)c1nnnn1-c1ccccc1S(C)(=O)=O | inconclusive [inhibitor, single point] |  |
| COc1cc(/C=N/n2c(C3CCCCC3)n[nH]c2=S)cc(Br)c1O |  | inconclusive: -9.31% [inhibitor] |
| COc1ccccc1CNC(=S)NC1CCCCC1 | inconclusive [inhibitor, single point] |  |
| CC(c1ccccc1)n1cc(C(=O)NCc2ccccn2)nn1 (stereo not given) | inactive |  |
| Cc1cccc(N2CCN(C(=O)c3ccc(CS(=O)Cc4cccc(Cl)c4)o3)CC2)c1C (stereo not given) | inconclusive [inhibitor, single point] |  |
| Oc1c(CN2CCCCC2)cc(Br)c2cccnc12 | active: 5.17 µM |  |
| Nc1n[nH]c(N)c1N=Nc1ccc(F)cc1 | inactive |  |
| CC1CCCN(CCCNC(=O)c2ccc3c(c2)N(Cc2ccccc2F)C(=O)c2ccccc2S3(=O)=O)C1 (stereo not given) | active: 14.6 µM |  |
| O=C(/C=C/c1ccccc1)c1ccc2c(c1)OCO2 | inconclusive [inhibitor, single point] |  |
| O=C(COc1ccc(Cl)cc1Cl)Nc1nc2n(n1)C(c1ccccc1)CC(=O)N2 (stereo not given) | inconclusive [inhibitor, full curve, poor fit] |  |
| Cc1ccc(OCCC(=O)Nc2ccc(F)c(F)c2)cc1 | inconclusive [inhibitor, single point] |  |
| CC(Cc1ccccn1)NC(=O)c1ccc(OC2CCN(CCc3ccccc3)CC2)cc1 (stereo not given) | inconclusive [inhibitor, partial curve] |  |
| O=C(c1cccs1)N1CCN(S(=O)(=O)N2CCCCC2)CC1 | inactive |  |
| O=C(Nc1cccc(F)c1)C1CCCN(S(=O)(=O)c2cnc[nH]2)C1 (stereo not given) | inactive |  |
| COc1ccc2nc(C)c(C(=O)NN)cc2c1 | inconclusive [inhibitor, single point] |  |
| CS(=O)(=O)c1ccc(Nc2nc(C(N)c3ccccc3Cl)cs2)cc1 (stereo not given) | inconclusive [inhibitor, single point] |  |
| Cc1ccccc1-c1nc(CN2CCC(C(=O)NCc3ccccc3Cl)CC2)c(C)o1 | inconclusive [inhibitor, single point] |  |
| O=C(NNc1ccc([N+](=O)[O-])cc1)C12CC3CC(CC(C3)C1)C2 | inconclusive [inhibitor, partial curve] |  |
| CCOc1ccc(NC(=O)c2ccc(OCC3CCCO3)cc2)cc1S(=O)(=O)N(CC)CC (stereo not given) | inconclusive [inhibitor, single point] |  |
